Source: the supplement of paper PMC12217912
This is one part of the list. Sequences were assembled here from the parent chain. Values near 0.05 are background.

B1: TEV protease; numbered along this chain (parent)
chain: MGESLFKGPRDYNPISSSICHLTNESDGHTTSLYGIGFGPFIITNKHLFRRNNGTLVVQSLHGVFKVKDTTTLQQHLVDGRDMIIIRMPKDFPPFPQKLKFREPQREERICLVTTNFQTKSMSSMVSDTSCTFPSGDGIFWKHWIQTKDGQCGSPLVSTRDGFIVGIHSASNFTNTNNYFTSVPKNFMELLTNQEAQQWVSGWRLNADSVLWGGHKVFMVKPEEPFQPVKEATQL

Variants of: B1
Assay: raw area under fraction-flipped curve 0-4 h after induction (AUC4h, not background-subtracted), DNA-recorder readout of cleavage of the substrate (dimensionless); higher = more cleavage of the substrate by the protease variant
Conditions: temperature: 34 °C; time window: 0-4 h after rhamnose induction
Description: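 In vivo DNA recorder in E. coli TOP10(DE3) ΔrhaA at 34 °C. Each TEVp single-site mutant (parent TEVp 0) is paired with a single-site variant of the 7-mer TEVs (canonical ENLYFQ|S). The substrate sits between flexible linkers in a Bxb1-sfGFP-TEVs-SsrA fusion, so cleavage stabilises Bxb1 and speeds flipping of a recombination array, read by NGS. The value is the raw area under the fraction-flipped curve over 0-4 h after rhamnose induction (AUC4h), with ≥20 reads per time point. It is not background-subtracted; inactive controls average about 0.047.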
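Also: Bxb1 expression induced with 0.2% (w/v) L-rhamnose at OD600 near 0.5, cultures sampled hourly, flipped fraction per protease–substrate barcode pair counted by paired-end Illumina sequencing.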

Row | Variant | area with substrate ENLYFQC | area with substrate ENLYFQD | area with substrate ENLYFQE | area with substrate ENLYFQH | area with substrate ENLYFQI | area with substrate ENLYFQK | area with substrate ENLYFQL | area with substrate ENLYFQM | area with substrate ENLYFQN | area with substrate ENLYFQP | area with substrate ENLYFQQ | area with substrate ENLYFQR | area with substrate ENLYFQS | area with substrate ENLYFQT | area with substrate ENLYFQW | area with substrate ENLYFQF | area with substrate ENLYFQG | area with substrate ENLYFQV | area with substrate ENLYFQY
1 | S26V | 0.0701 | 0.0521 | 0.0692 | 0.0666 | 0.0587 | 0.0609 | 0.0694 | 0.0841 | 0.0674 | 0.0591 | 0.0499 | 0.0549 | 0.0785 | 0.0537 | 0.0592 |  |  |  | 
2 | T31C | 0.117 |  |  | 0.0778 | 0.0713 | 0.0676 | 0.0678 | 0.104 | 0.086 |  | 0.0767 | 0.0555 | 0.114 | 0.0757 | 0.0694 | 0.108 | 0.119 | 0.0855 | 
3 | T31G | 0.108 | 0.0726 |  | 0.0808 | 0.0758 | 0.0587 | 0.0704 | 0.0976 | 0.0723 | 0.0545 | 0.0779 | 0.0538 | 0.0846 | 0.0631 | 0.0947 | 0.0706 | 0.0684 | 0.0726 | 0.0822
4 | S32N | 0.0927 | 0.0696 |  |  | 0.0578 | 0.0647 | 0.074 | 0.0758 | 0.0565 | 0.0458 |  | 0.0704 | 0.0883 | 0.0449 | 0.064 | 0.0985 | 0.0684 | 0.0603 | 
5 | G39D | 0.0229 | 0.0585 |  | 0.0451 | 0.0419 |  | 0.0438 | 0.043 | 0.046 |  | 0.0461 | 0.0391 | 0.0452 | 0.0451 | 0.0548 |  | 0.0451 |  | 0.0426
6 | F41N | 0.112 |  | 0.0598 | 0.0579 | 0.0756 | 0.0576 | 0.0553 | 0.0701 | 0.0696 | 0.0603 | 0.0788 | 0.0653 | 0.0855 | 0.0544 |  | 0.0845 | 0.0844 |  | 0.0637
7 | T44L | 0.0531 | 0.0437 |  | 0.085 | 0.0615 | 0.0681 | 0.046 | 0.0596 | 0.0411 | 0.0501 | 0.0512 | 0.0464 | 0.0653 | 0.0663 | 0.0508 | 0.0553 | 0.0993 | 0.0501 | 0.0526
8 | T44Q | 0.0452 | 0.0392 |  |  | 0.0518 | 0.0544 | 0.0357 | 0.0355 | 0.0403 | 0.0389 | 0.0476 | 0.0416 | 0.0431 | 0.0555 | 0.0479 | 0.0379 | 0.0449 | 0.0341 | 0.0559
9 | N45Q | 0.0671 |  |  | 0.0533 |  | 0.055 | 0.0563 | 0.0561 | 0.0723 | 0.172 | 0.0638 | 0.0682 | 0.0608 | 0.0576 | 0.053 |  | 0.0757 |  | 0.0712
10 | L48H | 0.0526 | 0.0656 |  | 0.0564 | 0.0561 | 0.0648 | 0.06 | 0.0573 | 0.0465 |  | 0.0483 | 0.0606 | 0.0615 |  | 0.0547 | 0.0264 | 0.0596 | 0.0696 | 0.0594
11 | F49H | 0.0666 |  |  | 0.053 |  | 0.0488 | 0.0507 | 0.0637 | 0.0552 |  | 0.0579 | 0.0457 | 0.0589 | 0.0642 | 0.0587 |  | 0.035 | 0.0583 | 0.0491
